Laboratory results as given in article PMC12214887.
These are yes or no findings as the source states them, for the method shown. For part of these data: In cells and extracts the contact can be indirect. Some entries that bind do so weakly or less than the wild type. For part of these data: Sequences can lack the tags named with a protein.

T1: DprA-SmBit (Streptococcus pneumoniae), Q8DPI7
T1 chain: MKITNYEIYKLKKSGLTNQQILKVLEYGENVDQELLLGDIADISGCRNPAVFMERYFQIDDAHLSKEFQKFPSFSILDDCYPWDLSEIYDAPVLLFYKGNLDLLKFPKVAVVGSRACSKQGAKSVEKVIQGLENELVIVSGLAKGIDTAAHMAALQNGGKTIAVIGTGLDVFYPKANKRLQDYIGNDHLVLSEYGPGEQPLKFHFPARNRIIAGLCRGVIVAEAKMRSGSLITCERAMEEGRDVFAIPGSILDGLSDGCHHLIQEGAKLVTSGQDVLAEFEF

B1: DivIB fragment aa 14-82 (prey clone of the genome-wide Y2H screen) (domain or fragment, UniProt Q8DQM0 14-82)
chain: EELKELSEWQKRNQEYLKKKAEEEVALAEEKEKERQARMGEESEKSEDKQDQESETDQEDSESAKEESE
B2: DivIB, full length, Gal4 AD or BD fusion (protein, UniProt Q8DQM0 1-396)
chain: MSKDKKNEDKETLEELKELSEWQKRNQEYLKKKAEEEVALAEEKEKERQARMGEESEKSEDKQDQESETDQEDSESAKEESEEKVASSEADKEKEEPESKEKEEQDKKLAKKATKEKPAKAKIPGIHILRAFTILFPSLLLLIVSAYLLSPYATMKDIRVEGTVQTTADDIRQASGIQDSDYTINLLLDKAKYEKQIKSNYWVESAQLVYQFPTKFTIKVKEYDIVAYYISGENHYPILSSGQLETSSVSLNSLPETYLSVLFNDSEQIKVFVSELAQISPELKAAIQKVELAPSKVTSDLIRLTMNDSDEVLVPLSEMSKKLPYYSKIKPQLSEPSVVDMEAGIYSYTVADKLIMEAEEKAKQEAKEAEKKQEEEQKKQEEESNRNQTNQRSSRR
B3: DprA-SmBit, Q8DPI7 1-282 (protein)
chain: T1 chain
B4: PBP2x, full length, Gal4 AD or BD fusion (protein, UniProt P59676 1-750)
chain: MKWTKRVIRYATKNRKSPAENRRRVGKSLSLLSVFVFAIFLVNFAVIIGTGTRFGTDLAKEAKKVHQTTRTVPAKRGTIYDRNGVPIAEDATSYNVYAVIDENYKSATGKILYVEKTQFNKVAEVFHKYLDMEESYVREQLSQPNLKQVSFGAKGNGITYANMMSIKKELEAAEVKGIDFTTSPNRSYPNGQFASSFIGLAQLHENEDGSKSLLGTSGMESSLNSILAGTDGIITYEKDRLGNIVPGTEQVSQRTMDGKDVYTTISSPLQSFMETQMDAFQEKVKGKYMTATLVSAKTGEILATTQRPTFDADTKEGITEDFVWRDILYQSNYEPGSTMKVMMLAAAIDNNTFPGGEVFNSSELKIADATIRDWDVNEGLTGGRMMTFSQGFAHSSNVGMTLLEQKMGDATWLDYLNRFKFGVPTRFGLTDEYAGQLPADNIVNIAQSSFGQGISVTQTQMIRAFTAIANDGVMLEPKFISAIYDPNDQTARKSQKEIVGNPVSKDAASLTRTNMVLVGTDPVYGTMYNHSTGKPTVTVPGQNVALKSGTAQIADEKNGGYLVGLTDYIFSAVSMSPAENPDFILYVTVQQPEHYSGIQLGEFANPILERASAMKDSLNLQTTAKALEQVSQQSPYPMPSVKDISPGDLAEELRRNLVQPIVVGTGTKIKNSSAEEGKNLAPNQQVLILSDKAEEVPDMYGWTKETAETLAKWLNIELEFQGSGSTVQKQDVRANTAIKDIKKITLTLGD

What was measured:
[1] = target: BD-ComM (ComM fused to the Gal4 DNA binding domain) (Streptococcus pneumoniae); assay: two-hybrid; Y2H matrices: Gal4 AD (pGAD-C1, PJ69-4α) and BD (pGBDU-C1, PJ69-4a) fusions, diploids by mating, growth on selective plates lacking leucine, uracil and adenine (-LUA); empty vectors as controls for auto-activation
[2] = target: BD-ComM (ComM fused to the Gal4 DNA binding domain) (Streptococcus pneumoniae); assay: two-hybrid; genome-wide screen: BD-ComM bait (pGBDU-C1, PJ69-4a) mated with a genomic S. pneumoniae library fused to the Gal4 AD (pGAD-C1, PJ69-4α); selection on medium lacking leucine, uracil and either histidine or adenine, 7–14 days
[3] = target: FtsW, full length, Gal4 AD or BD fusion (Streptococcus pneumoniae); assay: two-hybrid; Y2H matrices: Gal4 AD (pGAD-C1, PJ69-4α) and BD (pGBDU-C1, PJ69-4a) fusions, diploids by mating, growth on selective plates lacking leucine, uracil and adenine (-LUA); empty vectors as controls for auto-activation
[4] = target: T1, DprA-SmBit (Streptococcus pneumoniae), …; assay: split reporter; split-luciferase complementation (LgBit/SmBit) in living S. pneumoniae cells 15 min after competence induction with CSP1 at 37 °C; NanoGlo substrate, luminescence in a plate reader; conditions: remark: other sources report otherwise

| Molecule | binding [1] | further results |
| --- | --- | --- |
| FtsW, full length, Gal4 AD or BD fusion (from UniProt A0ACD7PRK7 1-409) | no binding |  |
| B1 |  | binding [2]: binds |
| B2 | binds | binding [3]: binds |
| B3 |  | binding [4]: binds |
| B4 | no binding |  |
